According to PubChem BioAssay AID1963576 (National Center for Advancing Translational Sciences (NCATS), 2024):
Among all 46,000 compounds or so, about 60 (0.1%) were called active. Not shown: some 3% with an inconclusive outcome. Calls come from the whole dose curve; as a rule, active = well fitted inhibition curve with a large enough effect; inconclusive = small, poorly fitted or top-dose-only effect; inactive = no such curve, though single readings can be large or run the other way. The list shows a part of the results.

experiment: Primary qHTS assay for Inhibitors of ovarian cancer metastasis using an organotypic tumor microenvironment (TME) model.; note: nearly all actives have a fitted effect of over 65% in size;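 for activity change, negative = inhibition: plate controls were DMSO wells for no effect and tomatine positive control wells for full effect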; settings: SKOV3ip1-GFP adhesion/invasion on 3D omental model, fluorescence; series mostly up to 45.8 µM; activity change, negative = inhibition: at the top concentration
In short: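 Adhesion/invasion was scored as fixed GFP-labeled SKOV3ip1 cell counts (488/509 nm), normalized to DMSO and tomatine controls. Cancer cells in serum-free medium, with four compound doses (0.36-46 umol/L), sat 2 hr at RT then 16 hr at 37 C on a 48 hr fibroblast/mesothelial/ECM culture.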

Activity change, negative = inhibition, inactive:
CCCN1CCN(CC2=C(C(=O)OCC)C(c3cccc(OC)c3OC)NC(=O)N2)CC1 (centres undefined) -11.2%
CCCCc1nn2c(=O)cc(COC(=O)c3ccc(NC(=O)c4cccc(OC)c4)cc3)nc2s1 4.52%
CCc1cccc(C)c1NC(=O)C(CC)Sc1nc2ccncc2[nH]1 (centres undefined) -3.45%
CCOc1cccc2sc(NC(=O)c3ccc(S(=O)(=O)N4CCc5ccccc54)cc3)nc12 13.6%
Cc1ccc2c(CC(=O)Nc3ccc(S(=O)(=O)Nc4nc(C)cc(C)n4)cc3)coc2c1 8.64%
COc1cc(C2Nc3ccccc3-c3nnc(SCc4ccc(Cl)cc4)nc3O2)ccc1OCC(=O)O (centres undefined) 6.14%
CCCCN(C)C(=O)c1ccc2c(c1)N(Cc1cccc(Cl)c1)C(=O)c1ccccc1S2=O (centres undefined) -8.26%
CCOC(=O)CSc1nc2cc3c(cc2c(=O)n1CCCCCC(=O)NCc1ccc2c(c1)OCO2)OCO3 9.61%
COC(=O)C1=C(C)NC(C)=C(C(=O)OCCCN2CCC(c3ccccc3)(c3ccccc3)CC2)C1c1cccc([N+](=O)[O-])c1 (centres undefined) -10.6%
COc1ccc(-c2noc(-c3cc(C(C)C)[nH]n3)n2)cc1 10.6%
O=C(NCc1ccc(Cl)cc1)C1(c2cccs2)CCOCC1 2.93%
Cc1cc2oc(C(=O)N(Cc3ccc(N(C)C)cc3)CC3CCCO3)c(C)c2cc1C (centres undefined) -8.66%
CCC1=Nc2cc(C(=O)NCCCOC(C)C)ccc2Sc2ccc(C)cc21 -2.9%
COC(=O)c1ccccc1NC(=O)Cn1ncc2c(C)n(Cc3ccc(F)cc3)c(C)c2c1=O -2.22%
O=C(Nc1ccc(NC(=O)c2cccs2)cc1)c1ccc(Cl)cc1 -5.97%
Cc1ccc(CNC(=O)C2CCCN(c3nc4c(C)cc(C)cc4s3)C2)cc1 (centres undefined) 3.61%
CC(=O)c1cccc(Nc2cc(C)nc3nc(-c4ccccc4C)nn23)c1 52.5%
COC(=O)c1ccccc1NC(=O)CCn1nc(C)c2c(C)n(-c3ccccc3)nc2c1=O 3.33%
O=C(COc1ccccc1)NCCc1csc(-c2ccc(F)cc2)n1 -6.45%
Cc1ccccc1Cc1c(C)nc2c(-c3ccccc3)c(C)[nH]n2c1=O 30.9%
CCCCOc1ccc(Cn2c(=O)oc3ccccc32)cc1 -3.23%
O=C(Cn1cc(S(=O)(=O)Cc2cccc(Cl)c2)c2ccccc21)Nc1ccc(F)c(Cl)c1 -3.46%
COc1ccc(CNC(=O)CCc2nc3cccnc3n2Cc2ccc(OC)cc2)cc1 -2.66%
COc1ccccc1CNS(=O)(=O)c1cc(-c2cc(C)no2)ccc1C 19%
COC(=O)c1ccc(NC(=O)c2nn(C)c3c2COc2ccccc2-3)cc1 2.29%
CCOc1ccc(OCC(=O)NCCS(=O)(=O)N2CCN(c3ccc(OC)cc3)CC2)cc1 3.22%
Cc1ccc(-c2cc(NC(=O)COc3c(C)cc(C)cc3C)on2)cc1 0.396%
O=C(NCc1ccccc1F)c1cccc(NC(=O)N2CCSc3ncccc32)c1 36.3%
CC[C@H](C)C(=O)O[C@H]1C[C@@H](C)C=C2C=C[C@H](C)[C@H](CC[C@@H]3C[C@@H](O)CC(=O)O3)[C@H]21 -8.07%
Cc1ccc(C)c(NC2=C(c3ccc(C(F)(F)F)cc3)C(=O)c3ccccc32)c1 4.78%
CCOCCc1nn2c(=O)cc(COC(=O)c3ccc(NC(=O)c4ccc(F)cc4)cc3)nc2s1 0.987%
COc1ccccc1C(=O)NCCc1csc(-c2ccc(C(F)(F)F)cc2)n1 4.28%
COc1ccc2c(CNC3CCC(C)CC3)c(C(=O)O)n(Cc3ccccc3)c2c1 (centres undefined) 14.9%
Clc1ccc(C(Cn2ccnc2)OCc2ccc(Sc3ccccc3)cc2)c(Cl)c1 (centres undefined) -6.88%
CCCN1CCCc2cc(CN(CCCN3CCOCC3)C(=O)Nc3ccc(OCC)cc3)ccc21 2.26%
CC(=O)N1CCc2cc(CNC(=O)Nc3ccccc3C(F)(F)F)ccc21 -7.44%
CCC(C(=O)Nc1cc(OC)ccc1OC)n1nc(-c2ccccc2)c2c(c1=O)CCCC2 (centres undefined) 6.56%
Cc1ccc2oc(C(=O)Nc3ccc(S(=O)(=O)Nc4ncccn4)cc3)cc(=O)c2c1 7.07%
Cc1ccc(-c2cn3nc(N4CCC(C(=O)Nc5ccccc5C)CC4)sc3n2)cc1 0.0008%
CCOc1ccccc1CNC(=O)C1CCN(Cc2cc3ccccc3n2Cc2ccccc2)CC1 8.72%
Cn1c2ccccc2c2c(C(=O)N3CCN(c4cccc(C(F)(F)F)c4)CC3)cn(C3CCCCC3)c(=O)c21 -5.58%
Cc1cccc(Cn2c(SCc3ccc(C(=O)NCc4ccccc4F)cc3)nc3cccnc32)c1 5.38%
Cc1ccc(-n2ccnc(NCc3cccs3)c2=O)cc1C 3.18%
Cc1cc(C)c2oc(C(=O)Nc3nc4ccc(Cl)cc4s3)cc(=O)c2c1 0.641%
CN1C(C(=O)NC(C)(C)C)=CC(c2ccc3c(c2)OCO3)=NS1(=O)=O 11.2%
CCCS(=O)(=O)c1nc(S(=O)(=O)c2ccc(C)cc2)c(NC(C)c2ccccc2)s1 (centres undefined) -8.31%
O=C(COCc1cc(-c2ccc3c(c2)OCO3)on1)N1CCN(c2cccc(C(F)(F)F)c2)CC1 -2.76%
COc1cc2nc(NC(=O)c3ccc(S(=O)(=O)N4CCCC4)cc3)sc2cc1OC 7.07%
COc1ccc2oc(=O)c(-c3nc4ccc(C)cc4[nH]3)cc2c1 6.41%
CCC(=O)N1CCc2cc(S(=O)(=O)NCCC(=O)Nc3cccc(SC)c3)ccc21 -10.3%
CCOC(=O)c1cc(-c2ccc(F)cc2)n(CCC(=O)NCc2ccc(C)cc2)c1C 2.56%
Cc1ccc(NC(=O)CN2CCN(C3CCCCC3)C(=O)C2=O)cc1C -4.12%
CCCN1C(C(=O)c2ccccc2)=C(OC(=O)C(C)(C)C)c2ccccc2S1(=O)=O -0.939%
Cc1ccc2c(c1)sc1nc(=O)n(-c3cccc(Cl)c3)c(=O)n12 0.841%
COc1ccccc1NC(=O)C1=C(C)Nc2nc(SCc3ccccc3Cl)nn2C1c1cccnc1 (centres undefined) 37.1%
CN(C(=O)NCc1noc2ccccc12)c1cccc(Cl)c1 6.4%
COc1ccc(CN2C(=O)c3ccccc3C2C(=O)NC2CCCCCC2)c(OC)c1 (centres undefined) 1.12%
O=C(Cn1ncc2c3ccccc3n(Cc3cccc(Cl)c3)c2c1=O)N1CCCCC1 -0.738%
Cc1ccc(-n2c(=O)[nH]c3sc4c(c3c2=O)CCNC4)cc1C -15.1%
Cc1cc(Cl)ccc1NS(=O)(=O)c1cc2[nH]c(=O)c(=O)[nH]c2cc1C -0.794%
Cc1ccc(NC(c2cccc(Cl)c2)c2nnc(-c3ccccc3)o2)cc1F (centres undefined) -25.2%
N#Cc1ccc(NC(=O)COCc2cc(-c3ccc(F)cc3)on2)cc1 9.23%
Cc1ccc(CN2C(=O)N(c3ccc(C)c(Cl)c3)S(=O)(=O)c3ccccc32)cc1 -0.925%
Cc1ccc(NC(=O)C2CCN(S(=O)(=O)c3c(C)noc3C)CC2)cc1C 9.62%
O=C(CSc1nccn1C1CCCC1)Nc1ccccc1 -8.71%
CCOC(=O)CSc1nc2ccccc2n2c(C)nnc12 7.24%
O=C(Nc1ccc(Cl)cc1C(F)(F)F)c1cc(S(=O)(=O)NCc2ccccc2)ccc1F 3.55%
CCOC(=O)C1CCN(C(=O)c2nn(-c3ccc(C)cc3)c(=O)n(C)c2=O)CC1 4.55%
COC(=O)c1c(-c2cccs2)csc1NC(=O)COc1ccc(C(C)C)cc1 3.07%
CCOc1ccc(CNC(=O)c2cnc(SC)nc2C)cc1 0.921%
COc1ccccc1N1CCN(C(=O)c2cc3c(=O)n(Cc4cccnc4)ccc3nc2C)CC1 1.06%
CCOc1ccc(-n2ccnc2SCC(=O)Nc2ccc(OC)cc2OC)cc1 -7.67%

outcome, inactive:
Cc1cc(C)cc(NC(=O)N2CCN(C)c3ncccc32)c1
O=C(CCCCn1c(=O)c2ccccc2n(Cc2ccccc2F)c1=O)NCc1ccc2c(c1)OCO2
Cn1c(=O)cc(OCC(=O)N2CCN(c3ccccc3F)CC2)c2ccccc21
CCOc1ccc(CNC(=O)CN2C(=O)CSc3ccc(S(=O)(=O)N4CCOCC4)cc32)cc1OC
CN(C(=O)Cn1c(=O)n(Cc2ccc(C(=O)NCc3ccc4c(c3)OCO4)cc2)c(=O)c2ccccc21)c1ccccc1
Cc1nn(CCCC(=O)NCCc2ccc(Cl)cc2)c(=O)c2nn(-c3ccccc3)c(C)c12
O=C(NCc1cccc(Cl)c1)c1oc(=O)c2ccccc2c1-c1ccccc1
Cc1ccc(NC(=O)Cn2c(=O)n(CCc3ccccc3)c(=O)c3sc4ccccc4c32)cc1C
COc1ccc(C2CC(=O)c3cc(-c4nc(-c5cccc([N+](=O)[O-])c5)cs4)c(=O)n(-c4ccccc4C)c3C2)cc1 (centres undefined)
CCc1ccc(C2CC(=O)N(c3cccc(C(F)(F)F)c3)C3=C2C(=O)OC3)cc1 (centres undefined)
COc1cc(NC(=O)Cn2c(=O)n(CC3CCCO3)c(=O)c3cc(OC)c(OC)cc32)cc(OC)c1 (centres undefined)
COc1cccc(NS(=O)(=O)c2ccc3[nH]cc(C(=O)NCCc4ccc(C)cc4)c(=O)c3c2)c1
O=C(COc1ccccc1F)Nc1ccc2nc(SCc3ccccc3)sc2c1
CCCCc1nn2c(C)c(-c3ccc(OCC)cc3)nc2s1
CCOC(=O)C1CCN(C(=O)Cn2nc(CC)n3c(cc4occc43)c2=O)CC1
COC(=O)c1cc2oc(C)cc2n1Cc1ccc(Cl)cc1
COc1cccc(NC(=O)CN2C(=O)C3(SCC(=O)N3c3cc(C)cc(C)c3)c3ccccc32)c1 (centres undefined)
COc1ccc(CNC(=O)CCS(=O)(=O)c2ccc3c(c2)CC(C)N3C(=O)C2CC2)cc1 (centres undefined)
CCN(CC)C(=O)C1CCN(C(=O)c2cnn(-c3ccccc3)c2-n2cccc2)CC1
CCc1ccc(CNC(=O)c2ccc(CS(=O)(=O)Cc3ccccc3C)o2)cc1
CCC1Oc2ccccc2N(CC(=O)NCc2ccc(C)cc2)C1=O (centres undefined)
Cc1ccccc1OCC(=O)Nc1nnc(S(=O)(=O)N(C)c2ccccc2)s1
